Among the data in the RNAGym collection of RNA variant scans (doi:10.7554/elife.90254) are self-cleavage values, retold here.

The source gives no read counts; variants with many changes may rest on few reads.

To fix the notation:
B1: LINE1-mini (parent)
chain: GGCAGAGCUCAACACAGCGUGGCAAAGUGGCUGUGGCUAGACUGCC

The data set covers variants of B1. The data set can be described thus: self-cleavage, relative activity (ratio to wild type); higher = more cleavage; in vitro, sequencing; the parent is a self-cleaving ribozyme.
Take A11C C15A A26C: the self-cleavage worked out at 0.02. For A11C C13A C37A, the self-cleavage came out at 0.

For the variant C10U A14G G40A, the self-cleavage was 0.03. The value for C10U A11C G33A G35U A41G was 0.02; that for C10U C23G G36U was 0.06.

As to A11C A16G C42U, the self-cleavage came to 0.02. As to A11C G29A C37G, the self-cleavage stood at 0.01. The value for A11C U20A G33U C42A G44U C46U was 0.01; that for A11C C13U C23U C37U C45U was 0; that for C10U A24U U32G A41U was 0.02. The value for C10U C15U C18U U28A G30U C31U A39U was 0.04; that for A11C G35A U38C was 0.02. The result for A11C A12G G29A G30C C37U reads 0.01; that for C10U C13U A16U U34G A39U, 0.03. For the variant A11C C37G C42A, the self-cleavage was 0.01. As to A11C U20C G29C G44A, the self-cleavage worked out at 0.

Consider C10U C23A A24G U32C C37A, for which the self-cleavage stood at 0.03. The result for C10U A14G C23U G27U reads 0.06; that for C10U G22U G29A U32A G33A G35A, 0.02; that for A11C G30A G36A, 0.01.

Take A11C C13G C18U G22U G27A G30U: the self-cleavage was 0. Consider C10U G17U C23G, for which the self-cleavage came to 0.02.

With C10U C15A U34G C37G, the self-cleavage was 0.04.

Consider C10U G35U G40U, for which the self-cleavage was determined as 0.02. The result for A11C A39C U43C reads 0; that for C10U A11C A16G C18U U20G A39C U43C, 0.01; that for A11C A41U C42G, 0.

Consider A11C C15U G19C G27U, for which the self-cleavage was determined as 0.01. C10U U20C U38C: the self-cleavage turned out to be 0.11. Turning to A11C A12U A14C, the self-cleavage worked out at 0.07. With A11C G19A U20A U28G G30C G44A, the self-cleavage worked out at 0.01. As to A11G A25U G29U G40U, the self-cleavage amounted to 0.03. The result for A11G G17C A41G reads 0.03; that for C10U C23A C31A, 0.04; that for C10U C18U U28A G33C G36U, 0. Regarding C10U G21U G30U, the self-cleavage turned out to be 1.12.

Turning to C10U G29C C31A, the self-cleavage was determined as 0.24. The result for A11C G29A A41U reads 0.04; that for C10U G17U C46A, 0.03. A11C C15U A24G U28G G33A: the self-cleavage worked out at 0.02. The result for C10U G36C G44U reads 0.08; that for C10U A14G C45A, 0.06. The result for A11C G22A A25G G40U reads 0.01; that for A11C G36A G44C, 0.02; that for A11G A25G G36A, 0.01. The value for A11C A16C G30A A41G G44U was 0.02. Consider A11G A24G G33A G40U, for which the self-cleavage came out at 0.01. As to C10U G19A G22U U34G, the self-cleavage came out at 0.19. The value for A11G C13G G21U C42A was 0.01; that for C10U C13U G35U was 0.13. The result for A11C C31G U32A G44C reads 0.01; that for A11C A41U U43G, 0. Take C10U C23G C31U: the self-cleavage worked out at 0.98. The result for C10U G35C U43C C46U reads 0.03. C10G G35U C37U C45G: the self-cleavage is 0.01. The result for C10G U20C G22U A26G G27U reads 0.04; that for A11C A14C A26C G36C, 0.02. Regarding C10U G27C U32C G40A, the self-cleavage is 0.04.

As for A11G C23A G27A U28C C37U, the self-cleavage was 0.02. The value for A11G C18G G27C G35C C42U U43A was 0.02; that for C10G G29C C31A G36A was 0.02.

With A11C A16G U38G G40C, the self-cleavage amounted to 0.

As for A11C G36U C42G, the self-cleavage was 0.03. Consider C10U A16C U32A, for which the self-cleavage was 0.03. Turning to C10U C23A C31U G33A, the self-cleavage was found to be 0. The value for C10U A11G G22A was 0.02. On to A11C G19U C23U U34C C37G, for which the self-cleavage was 0.01. The result for C10U A11G C13A G22U A26G G29U C42A C45G reads 0; that for C10U G33U A41U, 0.02. As to A11G C13A C31A G35C, the self-cleavage was 0.03. A11G A12C C23G C42G: the self-cleavage worked out at 0. In the case of C10U G21C U34A C45G C46U, the self-cleavage was determined as 0.04. Consider A11C A24G A39G, for which the self-cleavage is 0.03.

Regarding A11C C15A U32C U34A, the self-cleavage stood at 0.03. The result for A11C C13A U20C C37U C42G reads 0.02; that for C10U A14C C18U G21A G44U, 0.05; that for A11C C23A A24C, 0.02.

C10U A16G G22A G30A U38C U43G: the self-cleavage worked out at 0. The value for A11C G17C G27A U32G G40C was 0.01; that for C10U A11G C18G A26U was 0.02.

For the variant A11C A14C U34A C42U, the self-cleavage is 0.02. The result for C10U A26U C37U C45U reads 0.03; that for C10U U28A G29A G35A A41G, 0.02. The result for A11C C15U C46U reads 0.07. The result for C10U A12C G17U reads 0; that for C10U C15U A16C U38A A39G A41U, 0.01; that for A11G C23G G30U U34A G35A, 0.02. Turning to C10U C13U G33U, the self-cleavage came to 0.06.

With A11G A12G G21A C31U, the self-cleavage came out at 0.01. Turning to C10U G29A A39G, the self-cleavage was determined as 0.11. The result for C10U C15A G27U G35U reads 0.03; that for A11C G22U G44C, 0.02; that for A11C G22U G44U, 0.03. The value for A11G A14G A24C G44A was 0.05; that for A11C A26U G29U was 0.02; that for C10U A11G G22A C37G was 0.01.

For the variant A11C A12G C13G G19C C37U A39U A41G, the self-cleavage amounted to 0.01.

As for C10U C13G G21C C31A U32A A39G A41U C42A, the self-cleavage came to 0.02.

With A11G A12U U20G G40U, the self-cleavage is 0.02. On to C10U C13U G19U C45G, for which the self-cleavage is 0.05. With C10U U20C G29C G35C, the self-cleavage came out at 0.01. The value for C10G G40A C46U was 0.01.

On to C10U A11U A16U G29U, for which the self-cleavage was 0.02. In the case of C10U C15A A41C, the self-cleavage was determined as 0.01.

For A11C C18U A24U G30A, the self-cleavage was found to be 0.21. C10U C15U U20G: the self-cleavage stood at 0.17. The value for A11C G27U G35U was 0.05; that for C10U C18U G36C G40C was 0.01. The value for A11G A12C C23G G27U G33C was 0. The result for A11G C15A C42U reads 0.01; that for A11C G17C G35U, 0. Regarding C10U A41G G44A, the self-cleavage stood at 0. Consider A11G C13A C15A G29C, for which the self-cleavage came to 0.02.

Take C10G U38C C42G: the self-cleavage was 0. The value for A11G A25C C46U was 0; that for C10U C23A A25U was 0.07.

Turning to A11C A14U C15G G44U C45A, the self-cleavage was 0.

In the case of A11C G27C C37A, the self-cleavage is 0. For the variant A11C U20G G36C, the self-cleavage stood at 0. On to C10U A12U C23U G27A C42G, for which the self-cleavage came to 0.11. A11G A16U C31G A41G C42A: the self-cleavage worked out at 0. Regarding C10U G30A C31U C46G, the self-cleavage amounted to 0.09. With A11C C15G G22U, the self-cleavage came to 0.01. For C10U G19A G22U C23A G44U, the self-cleavage was determined as 0.18. The result for C10U G19U G27U G40U reads 0.02. The result for C10U A11G C15G C18G reads 0.02; that for A11G A16U G22A A24G C37U, 0.01. The value for C10U A14G G21U A41C was 0.04. C10U A26G G33U: the self-cleavage was determined as 0.02. The value for C10U A26U G29C was 0.03; that for C10U C13G A16U G30U was 0.03; that for C10U C31G G36A C46A was 0.05. For C10U C15A U20G G27A A41G, the self-cleavage worked out at 0.02. The value for A11C G27A A39U was 0.03; that for C10U A14G C31G U32A was 0.01; that for C10U G27A C31G was 0.12. As for C10U U32C G35U G40U, the self-cleavage turned out to be 0.01. With C10U A12U A16C, the self-cleavage is 0.02. The result for C10U A16G G17C A25U U38G reads 0.02. As to C10U G22U A26U C31A G36U, the self-cleavage was 0.05. C10U U20C G40C: the self-cleavage turned out to be 0.03.

As to C10U C18A G30U G33U G44U, the self-cleavage was determined as 0.04. The value for C10U G17A C23U A26U was 0.16. In the case of C10U A11U U20G C31U G36C, the self-cleavage was found to be 0.01. The result for A11G A12C G30A reads 0; that for A11G A14U C42A, 0.01; that for C10U A11U U38G, 0.01. In the case of C10U A14G U20G, the self-cleavage stood at 0.24.

Consider A11G C13U G36U, for which the self-cleavage was 0.01. The value for A11G A14C C18G G19C U28G was 0.01; that for A11G C31U G36C C45A was 0.01. The result for A11G A12C C42A reads 0; that for C10U A11C A12U, 0.04. For A11G A39C G40U G44C C45A, the self-cleavage came to 0. The value for A11G A41G G44C was 0.03; that for A11C C15G C37U was 0.01; that for C10U G17C A25U was 0.05. In the case of A11C C15A A25G, the self-cleavage turned out to be 0.05. With C10U C23U C37G, the self-cleavage turned out to be 0.03. The result for A11G C18A G29U C46A reads 0.04. The result for C10U A16C G21U G36U reads 0.02. The value for C10U G19U A39U was 0.21. For A11C A12U A39C, the self-cleavage stood at 0.02. The result for A11G G17C A24U U28G G35C G36A reads 0; that for A11C C13U G19U A41C, 0.02. Take C10U A16G A25G A26C U28C G29A: the self-cleavage turned out to be 0.11.

For the variant C10U A24U U28G G44C, the self-cleavage came to 0.41.
